Results: the supplement of paper PMC12632987
The full ranking holds about 4,500 sequences; the median of “median log2 fold change of GCK-ALFA target abundance (FLAG IP / Myc IP barcode read proportion)” is about 0.078, and the lowest 2% start at about -0.6. This is one part of the list.

B1: GBRAP_128_3348 (protein)
chain: LDEEVLAEAEELIEKILASDVETARELTKELVELIGKATPEEQEAIVALLEEALPKLSAEKLEAVADALREQRPKLSPYAANLVAGLEVEALNLAVEKEE
B2: GBRAP_11_2907 (protein)
chain: KKEELKKAAKLAEEAAKLLEKLKKEGEKDEKLWKEAEKALKELKKLVKKYLDESDAELAEEALKLLKEAKKDPKNAQQYLDEALATTRVLKGQILLAIEE
B3: GBRAP_52_6319 (protein)
chain: MKEEAKKLAEELVKLVKEGKLEEARKLAKEIAKTKSEEFLEEIAKVLAEMAKTANEEEIDAIVEAAEILADELIEEGYDEAFASDILARVAKAAYENSLK
B4: GBRAP_78_6694 (protein)
chain: EVEELLDEALKYLGEAARILAKMNTPEANDLLGKVIDVASTVEEAQFGEANLEELEEALKKLKEALEEAKKLPTPEAKEAAKYLEKAIEKLEKAIKLLKE
B5: GBRAP_184_5325 (protein)
chain: EVIRKVIEVETKEEAKEKLEELEKEALKSGKKYLVIIELKNPTKELIKTVAEKIKEMKEKGVDAEFIVVIDDPMDEELTDIAVEEFSKAGAKVVLALEDS
B6: GBRAP_160_4615 (protein)
chain: MEKIEELIKFVKEEFEEAKKMVEGETAEQRATIVDVTFGKIIIEADELEVVSDESLDEIDEIRDEVVATILANPDLTDEEVKELIEEAEKKVIEIIKKDE
B7: GBRAP_39_5665 (protein)
chain: EEEEENEDVVSYLEGVAAGYLYETGISLEEAFKRAKEILEKYAEEHPELKELIEELIELAEKKGEEAKLALIGVAVLIEEGTPKEEIKEMIEKVIKYFKK
B8: GBRAP_52_5845 (protein)
chain: MREEAEKLAKELVELAKEGKEEELEAKIKEIVETKSEEEVMLILEELARLAKEADPETAEVIWEVAEKLAEKALEAGFDEMELSLGLALVGAAVYEAQQR
B9: GBRAP_39_5632 (protein)
chain: EEEEELELLRSYAEADLAARQVKTGLPLEELFAELYAEARAAAADDPELLAAFERLVELAEKHGPEARERAAAIFAAYLAGLPREDVLRLARAEIEELEA
B10: GBRAP_52_6183 (protein)
chain: MREELRRRLEEIHELVKAGRLEEARALARELVESLSEEEARLLVEVAAELTRELPLEDLDAAFEMAEILAEAMVEAGFDEVLAEDLLAAVAAAMYEKELA
B11: GBRAP_80_6830 (protein)
chain: MEAELEAVLKALAEVDPEIAELVRRAVAIARELGVPLSALLRLTRAVLELAKVDKEAALALVRRLLAELEEAKAEGDQARALALLADAESEALLRVEELE
B12: GBRAP_11_2744 (protein)
chain: KKEKLEEIKKLAEELAKTLQQLIEEGVDNEELIKKAEELIKKLKELVKKYGDESLKKLAEIIAEDFEKAKADPETALQHWQNALAAARVLAGQVLLEIEE
B13: GBRAP_11_2655 (protein)
chain: KKEKLKEAAELAREAAEALEQLIEEGVDNEELQKKLREKIEKLLELAKKEADKADQHEVEVVVELWEEFLADPENKEKLAEELLAGLRVLEGNFELEADE
B14: GBRAP_52_6293 (protein)
chain: SEEEVEKLAEEIVELVKEGKLEEAIKLAKEFVKEHSLEEVLRLGELLIEKIEELTPEEAEKMLEVVEALAEKLEEEFNAEEEADYLEARAAAAAYKVFLK
B15: GBRAP_48_5820 (protein)
chain: PHMDKEKLKELVEETVEEMKELYEEMKAEGKSEEEILKVIKAELGDLALELEEAGYTKAADYLLDPENREKTAKTLLEFFKKGKYEEAKEYLLKKLEEAE
B16: GBRAP_52_6030 (protein)
chain: MEEKMEKLAQEIIDLVKEGKLEEAKKLAKEIVENLSEEELKMLGEKLAELTKEAPKEELDAYMEAAFIVADALEEAGYEEVFADDLLAKVAAAAVENLKK
B17: GBRAP_83_6997 (protein)
chain: AEKVTVAAAGDHILEAADIAIDLTKEEGKEVTIELIVRPEDIEKALEAVERLAKAGIETEILVVGLGLTEEEAERLKEEMEKIAKEHGVKIKVEVYLEEV
B18: GBRAP_74_6521 (protein)
chain: MEKLLEELKKAAEEGNAEEAVKLAKEIVKNGDLETIEEAAKIMVEFVDKHLDELSPEELEAVSDALAELADELMLRGGDSETVIAVANAAVRAEEKRAAL
B19: GBRAP_78_6653 (protein)
chain: EVEELVDKAMEHLDKAAKLTKQLDEESQNELLDLLVEAASHLLLSEEEGFDLKELEEALKYLEEALKYAKSLKTPTAEKIAEELEKAIEYLKKAIELLKK
B20: GBRAP_78_6678 (protein)
chain: EVEEHLDKALDHLNKAAKILNSMNTEEALDILGKVIDVAETVWEAHEGEADLEELKKALKEAKAALEEVKKIDTPEAKEAAKHLQAAIKELEAAIKLLEE
B21: GBRAP_128_3552 (protein)
chain: STEEAVAKAKELLEKMKTASPEEARELAEELAELLASASPEAREAIVKAILEELPELSVEHLEILADVFREKRPEADPDTANALAEIEVEALNEAEEKEE
B22: GBRAP_166_4975 (protein)
chain: AQAALVEALRARFDELAEKMKTADPEEKLELLAEAAEALAAARAAGLSPEDLRELIRYLIEKAKEVGIPLSAVEGALTILAELDEEEIDILDEAIAEVEA
B23: GBRAP_128_3291 (protein)
chain: SAAARYAEYRARLEAMLALSPEEFRAALLALALEAGAEGLEAVELFAEALEELAPRMTVEQLEAAAEALDEARAEVGPEAAAILADAANDLLLAAEEKEE
B24: GBRAP_95_7063 (protein)
chain: SETLEEAEILLDTAEDLVEAGLYERAAELAKLAYEELKEAGEKGENLLRLAKVLTKIAKATGNEEAAKLAEEALEEVKKAGGDEEEIEKLKKEIEKAKKK
B25: GBRAP_159_3958 (protein)
chain: MEELEKRVKEAKEKAKDNPEVVKLIEEVYDLIKEGEDAETIADFTVGSIVTLDVTPEEARLVLSVLPEETRRLAAEDLAYLAEELGREDLAAAARAILEE
B26: GBRAP_184_5280 (protein)
chain: TVRDVEIEAETAEEAIAAIRAAAAAARAEGAKLRLNILLRNASIEGILALFALLAELRAEGIIESAVLGIERELSEEEIDTVLAAADAAGVRVVLAIPDE
B27: GBRAP_52_6000 (protein)
chain: SMERLRKFAEELVEAAKAGDEERLEKLVKEVGKTFTPEEQLETLTLAIELAKTLGEEAVDVLARLAEAIEDAALEDALDPEVANEALTLALTAAIELEKK
B28: GBRAP_160_4740 (protein)
chain: KEELKKLKEEIEEIFEEGIELLKESEKEEALTIVRGIMGDVIMEVMSSEAASDELEDEIAEIADEAIEEVKANADAPIEKAIEIVEEAREKILELIEKEI
B29: GBRAP_80_6827 (protein)
chain: MEEKLEEVLKELEEIDEEIAKLVKEIVELARELGVPLERLLRFAEAILELAKKDKEKALKLVKETLEEVKEAKKRGNRDEVIAILADAESDALLEVEELE

Molecular target: GABARAP, O95166
Sequence (O95166 whole entry, the tested form may be a part): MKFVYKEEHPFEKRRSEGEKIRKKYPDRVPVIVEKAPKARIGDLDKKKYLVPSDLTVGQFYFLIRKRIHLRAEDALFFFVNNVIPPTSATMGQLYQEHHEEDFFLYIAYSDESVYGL
Test: median log2 fold change of GCK-ALFA target abundance (FLAG IP / Myc IP barcode read proportion) (log2 ratio); each designed protein is fused to an ALFA-tag nanobody in HEK293 cells to bring the named protein to FLAG-tagged glucokinase (GCK); Myc marks an untargeted standard; higher = target protein stabilised (more abundant)
Conditions: target protein: 3xFLAG-MCP-GCK-ALFA reporter; HEK293 landing pad (RPLP)
Outline: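 Binders fused to an ALFA nanobody were recombined as a library into HEK293 landing-pad cells, which were induced with 2 μg mL^−1 doxycycline and then transfected to express a FLAG-tagged target and a Myc-tagged standard. After 48 h, circular RNA barcodes recovered by anti-FLAG and anti-Myc immunoprecipitation of lysates were reverse transcribed, amplified and sequenced. Each binder's target abundance is the median log2 ratio of FLAG to Myc barcode read proportions, from barcodes present at ≥10^−7 in both replicates, binders carrying ≥3 barcodes per replicate, a 10^−6 pseudocount and pooled replicates.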

Binder	median log2 fold change
B1	0.0541
B2	0.212
B3	-0.00096
B4	0.11
B5	0.0754
B6	-0.181
B7	0.179
B8	-0.0463
B9	0.196
B10	0.0453
B11	0.209
B12	0.387
B13	0.192
B14	-0.318
B15	0.224
B16	-0.311
B17	-0.0374
B18	0.0619
B19	-0.163
B20	0.0214
B21	0.134
B22	0.0804
B23	0.14
B24	0.448
B25	0.0598
B26	-0.158
B27	0.00163
B28	0.102
B29	-0.293
